PMC12820563
Some of the results follow. The list includes weakly bound sequences.

target: T1, MBP-FoxP3dN (UniProt Q99JB6); assay: PD-seq (MBP pull-down with sequencing); settings: 20 mM Tris-HCl pH 7.5, 100 mM NaCl, 1.5 mM MgCl2, 0.4 uM protein, 0.1 uM dsDNA library, 30 min, room temperature, amylose pull-down; high values mean tight binding; double strand, one strand shown
T1 sequence: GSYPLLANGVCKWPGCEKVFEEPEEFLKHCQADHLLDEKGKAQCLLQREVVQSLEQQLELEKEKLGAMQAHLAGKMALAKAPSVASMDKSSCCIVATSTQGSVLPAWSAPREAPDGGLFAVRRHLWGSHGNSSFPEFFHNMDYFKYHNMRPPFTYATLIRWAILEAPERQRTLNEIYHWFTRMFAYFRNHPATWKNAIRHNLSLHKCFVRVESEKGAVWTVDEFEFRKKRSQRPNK

Sequence	binding signal (RPM ratio (pull-down/input))
GATGATTGTTCTCCCAGCTGATGAATTAGGATTGTCGAGTAAACAAATTTTCCTAATCTTTCTGTTCAAGCGCCATCTAC	1.04
GATGATTGTTCTCCCAGCTGATGAATTCACCCCATCGAGTAAACAAATTTTCCTAATCTTTCTGTTCAAGCGCCATCTAC	0.364
GATGATTGTTCTCCCAGCTGATGAATTCGGGCTATCGAGTAAACAAATTTTCCTAATCTTTCTGTTCAAGCGCCATCTAC	0.511
GATGATTGTTCTCCCAGCTGATGAATTTTTCTCTTCGAGTAAACAAATTTTCCTAATCTTTCTGTTCAAGCGCCATCTAC	0.211
GATGATTGTTCTCCCAGCTGATGAATTTTTGCATTCGAGTAAACAAATTTTCCTAATCTTTCTGTTCAAGCGCCATCTAC	6.58
GATGATTGTTCTCCCAGCTGATGAATTTCCGGACTCGAGTAAACAAATTTTCCTAATCTTTCTGTTCAAGCGCCATCTAC	0.182
GATGATTGTTCTCCCAGCTGATGAATTCTAGCAGTCGAGTAAACAAATTTTCCTAATCTTTCTGTTCAAGCGCCATCTAC	0.398
GATGATTGTTCTCCCAGCTGATGAATTGCTTACCTCGAGTAAACAAATTTTCCTAATCTTTCTGTTCAAGCGCCATCTAC	2.08
GATGATTGTTCTCCCAGCTGATGAATTAAGACGATCGAGTAAACAAATTTTCCTAATCTTTCTGTTCAAGCGCCATCTAC	0.207
GATGATTGTTCTCCCAGCTGATGAATTCAGATGCTCGAGTAAACAAATTTTCCTAATCTTTCTGTTCAAGCGCCATCTAC	0.894
GATGATTGTTCTCCCAGCTGATGAATTATTTAGCTCGAGTAAACAAATTTTCCTAATCTTTCTGTTCAAGCGCCATCTAC	0.932
GATGATTGTTCTCCCAGCTGATGAATTAATTGCTTCGAGTAAACAAATTTTCCTAATCTTTCTGTTCAAGCGCCATCTAC	1.38
GATGATTGTTCTCCCAGCTGATGAATTTGGGGCTTCGAGTAAACAAATTTTCCTAATCTTTCTGTTCAAGCGCCATCTAC	0.471
GATGATTGTTCTCCCAGCTGATGAATTCCGAATGTCGAGTAAACAAATTTTCCTAATCTTTCTGTTCAAGCGCCATCTAC	0.75
GATGATTGTTCTCCCAGCTGATGAATTGGTACAGTCGAGTAAACAAATTTTCCTAATCTTTCTGTTCAAGCGCCATCTAC	0.431
GATGATTGTTCTCCCAGCTGATGAATTGTAAGCATCGAGTAAACAAATTTTCCTAATCTTTCTGTTCAAGCGCCATCTAC	1.68
GATGATTGTTCTCCCAGCTGATGAATTGACATCTTCGAGTAAACAAATTTTCCTAATCTTTCTGTTCAAGCGCCATCTAC	0.613
GATGATTGTTCTCCCAGCTGATGAATTGTACAGCTCGAGTAAACAAATTTTCCTAATCTTTCTGTTCAAGCGCCATCTAC	0.375
GATGATTGTTCTCCCAGCTGATGAATTTTTAGGGTCGAGTAAACAAATTTTCCTAATCTTTCTGTTCAAGCGCCATCTAC	0.192
GATGATTGTTCTCCCAGCTGATGAATTCAGGTCTTCGAGTAAACAAATTTTCCTAATCTTTCTGTTCAAGCGCCATCTAC	0.457
GATGATTGTTCTCCCAGCTGATGAATTCCGATGCTCGAGTAAACAAATTTTCCTAATCTTTCTGTTCAAGCGCCATCTAC	0.797

Sequence	binding signal (RPM ratio (pull-down/input))
GATGATTGTTCTCCCAGCTGATGAATTAGCCAGTTCGAGTAAACAAATTTTCCTAATCTTTCTGTTCAAGCGCCATCTAC	0.285
GATGATTGTTCTCCCAGCTGATGAATTGGTCCTATCGAGTAAACAAATTTTCCTAATCTTTCTGTTCAAGCGCCATCTAC	0.443
GATGATTGTTCTCCCAGCTGATGAATTCAGCTCTTCGAGTAAACAAATTTTCCTAATCTTTCTGTTCAAGCGCCATCTAC	0.427
GATGATTGTTCTCCCAGCTGATGAATTCCTCAAATCGAGTAAACAAATTTTCCTAATCTTTCTGTTCAAGCGCCATCTAC	0.229
GATGATTGTTCTCCCAGCTGATGAATTGACCGCTTCGAGTAAACAAATTTTCCTAATCTTTCTGTTCAAGCGCCATCTAC	0.355
GATGATTGTTCTCCCAGCTGATGAATTGTCCGCGTCGAGTAAACAAATTTTCCTAATCTTTCTGTTCAAGCGCCATCTAC	0.455
GATGATTGTTCTCCCAGCTGATGAATTTACATATTCGAGTAAACAAATTTTCCTAATCTTTCTGTTCAAGCGCCATCTAC	0.801
GATGATTGTTCTCCCAGCTGATGAATTCATTTAGTCGAGTAAACAAATTTTCCTAATCTTTCTGTTCAAGCGCCATCTAC	1.44
GATGATTGTTCTCCCAGCTGATGAATTTTATACCTCGAGTAAACAAATTTTCCTAATCTTTCTGTTCAAGCGCCATCTAC	0.471
GATGATTGTTCTCCCAGCTGATGAATTGGAAGATTCGAGTAAACAAATTTTCCTAATCTTTCTGTTCAAGCGCCATCTAC	0.253
GATGATTGTTCTCCCAGCTGATGAATTCCGCACCTCGAGTAAACAAATTTTCCTAATCTTTCTGTTCAAGCGCCATCTAC	1.64
GATGATTGTTCTCCCAGCTGATGAATTGGGTGACTCGAGTAAACAAATTTTCCTAATCTTTCTGTTCAAGCGCCATCTAC	0.749
GATGATTGTTCTCCCAGCTGATGAATTTGGGGCCTCGAGTAAACAAATTTTCCTAATCTTTCTGTTCAAGCGCCATCTAC	0.606
GATGATTGTTCTCCCAGCTGATGAATTAGGGGGCTCGAGTAAACAAATTTTCCTAATCTTTCTGTTCAAGCGCCATCTAC	0.431
GATGATTGTTCTCCCAGCTGATGAATTGCTTGAATCGAGTAAACAAATTTTCCTAATCTTTCTGTTCAAGCGCCATCTAC	0.482
GATGATTGTTCTCCCAGCTGATGAATTCCGGGCTTCGAGTAAACAAATTTTCCTAATCTTTCTGTTCAAGCGCCATCTAC	0.32
GATGATTGTTCTCCCAGCTGATGAATTGGACACTTCGAGTAAACAAATTTTCCTAATCTTTCTGTTCAAGCGCCATCTAC	0.402
GATGATTGTTCTCCCAGCTGATGAATTCGGCACCTCGAGTAAACAAATTTTCCTAATCTTTCTGTTCAAGCGCCATCTAC	1.03
GATGATTGTTCTCCCAGCTGATGAATTGCTTCGGTCGAGTAAACAAATTTTCCTAATCTTTCTGTTCAAGCGCCATCTAC	0.423
GATGATTGTTCTCCCAGCTGATGAATTATCACGCTCGAGTAAACAAATTTTCCTAATCTTTCTGTTCAAGCGCCATCTAC	0.436
GATGATTGTTCTCCCAGCTGATGAATTAGTGTTATCGAGTAAACAAATTTTCCTAATCTTTCTGTTCAAGCGCCATCTAC	2.5

Sequence	binding signal (RPM ratio (pull-down/input))
GATGATTGTTCTCCCAGCTGATGAATTATGGGGGTCGAGTAAACAAATTTTCCTAATCTTTCTGTTCAAGCGCCATCTAC	0.512
GATGATTGTTCTCCCAGCTGATGAATTAATATTTTCGAGTAAACAAATTTTCCTAATCTTTCTGTTCAAGCGCCATCTAC	0.703
GATGATTGTTCTCCCAGCTGATGAATTGTGACCCTCGAGTAAACAAATTTTCCTAATCTTTCTGTTCAAGCGCCATCTAC	0.739
GATGATTGTTCTCCCAGCTGATGAATTTGAGTGTTCGAGTAAACAAATTTTCCTAATCTTTCTGTTCAAGCGCCATCTAC	1.53
GATGATTGTTCTCCCAGCTGATGAATTCCTACGCTCGAGTAAACAAATTTTCCTAATCTTTCTGTTCAAGCGCCATCTAC	0.235
GATGATTGTTCTCCCAGCTGATGAATTCAGGTCATCGAGTAAACAAATTTTCCTAATCTTTCTGTTCAAGCGCCATCTAC	0.504
GATGATTGTTCTCCCAGCTGATGAATTGCCATACTCGAGTAAACAAATTTTCCTAATCTTTCTGTTCAAGCGCCATCTAC	0.943
GATGATTGTTCTCCCAGCTGATGAATTTAACTCGTCGAGTAAACAAATTTTCCTAATCTTTCTGTTCAAGCGCCATCTAC	0.387
GATGATTGTTCTCCCAGCTGATGAATTCAGATTATCGAGTAAACAAATTTTCCTAATCTTTCTGTTCAAGCGCCATCTAC	0.784
GATGATTGTTCTCCCAGCTGATGAATTCCTTTTTTCGAGTAAACAAATTTTCCTAATCTTTCTGTTCAAGCGCCATCTAC	0.35
GATGATTGTTCTCCCAGCTGATGAATTGACGAATTCGAGTAAACAAATTTTCCTAATCTTTCTGTTCAAGCGCCATCTAC	0.617
GATGATTGTTCTCCCAGCTGATGAATTAATTCGATCGAGTAAACAAATTTTCCTAATCTTTCTGTTCAAGCGCCATCTAC	0.244
GATGATTGTTCTCCCAGCTGATGAATTTATTTATTCGAGTAAACAAATTTTCCTAATCTTTCTGTTCAAGCGCCATCTAC	5.86
GATGATTGTTCTCCCAGCTGATGAATTAAGACCATCGAGTAAACAAATTTTCCTAATCTTTCTGTTCAAGCGCCATCTAC	0.484
GATGATTGTTCTCCCAGCTGATGAATTGGCAATTTCGAGTAAACAAATTTTCCTAATCTTTCTGTTCAAGCGCCATCTAC	1.27
GATGATTGTTCTCCCAGCTGATGAATTATATGTTTCGAGTAAACAAATTTTCCTAATCTTTCTGTTCAAGCGCCATCTAC	2.01
GATGATTGTTCTCCCAGCTGATGAATTTGGAAATTCGAGTAAACAAATTTTCCTAATCTTTCTGTTCAAGCGCCATCTAC	0.539
GATGATTGTTCTCCCAGCTGATGAATTAATTCCGTCGAGTAAACAAATTTTCCTAATCTTTCTGTTCAAGCGCCATCTAC	0.288
GATGATTGTTCTCCCAGCTGATGAATTTCTTTCGTCGAGTAAACAAATTTTCCTAATCTTTCTGTTCAAGCGCCATCTAC	0.43
GATGATTGTTCTCCCAGCTGATGAATTTACGTGATCGAGTAAACAAATTTTCCTAATCTTTCTGTTCAAGCGCCATCTAC	0.645
GATGATTGTTCTCCCAGCTGATGAATTAGCTGGGTCGAGTAAACAAATTTTCCTAATCTTTCTGTTCAAGCGCCATCTAC	0.536
